By stoichiometry N is commonly meant a count of units in the complex or per binding partner.

Experimental findings from publication PMC2174220 (The Journal of Cell Biology, 1999) are described below.

First the molecules themselves.
B1: dynamitin (p50) subunit of dynactin, endogenous bovine (natural protein)
chain: not shown
B2: p24 subunit of dynactin (natural protein)
chain: not shown

For the test “p24 subunit of dynactin”, the target named is B2. Description: co-sedimentation.
In test [1] the target is B1. Briefly: SEC. (SEC sorts molecules by how far they enter the pores of the column.)

p24 subunit of dynactin, sequence (Q0P5A1 whole entry): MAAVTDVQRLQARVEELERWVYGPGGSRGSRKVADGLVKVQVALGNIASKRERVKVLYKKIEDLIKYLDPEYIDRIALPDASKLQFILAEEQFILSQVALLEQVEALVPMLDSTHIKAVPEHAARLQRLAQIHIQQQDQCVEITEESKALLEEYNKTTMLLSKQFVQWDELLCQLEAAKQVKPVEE

For B1, the “stoichiometry N” value with p24 subunit of dynactin was 2 dynamitin per 1 p24 (molar ratio in the shoulder).
With B2, in test [1], the binding result is “binds”.
